{
  "source": "paper PMC4336329",
  "about": "(PLoS ONE, 2015)",
  "note": "Screen size: about 310,000 compounds; about 2,200 (0.71%) showed an effect of 50% or more. The effect is printed as a negative number. This is one part of the list.",
  "data": [
    {"biological_target": "human ether-à-go-go-related gene (hERG) potassium channel (human, UniProt Q12809)", "sequence (Q12809 whole entry, looked up)": "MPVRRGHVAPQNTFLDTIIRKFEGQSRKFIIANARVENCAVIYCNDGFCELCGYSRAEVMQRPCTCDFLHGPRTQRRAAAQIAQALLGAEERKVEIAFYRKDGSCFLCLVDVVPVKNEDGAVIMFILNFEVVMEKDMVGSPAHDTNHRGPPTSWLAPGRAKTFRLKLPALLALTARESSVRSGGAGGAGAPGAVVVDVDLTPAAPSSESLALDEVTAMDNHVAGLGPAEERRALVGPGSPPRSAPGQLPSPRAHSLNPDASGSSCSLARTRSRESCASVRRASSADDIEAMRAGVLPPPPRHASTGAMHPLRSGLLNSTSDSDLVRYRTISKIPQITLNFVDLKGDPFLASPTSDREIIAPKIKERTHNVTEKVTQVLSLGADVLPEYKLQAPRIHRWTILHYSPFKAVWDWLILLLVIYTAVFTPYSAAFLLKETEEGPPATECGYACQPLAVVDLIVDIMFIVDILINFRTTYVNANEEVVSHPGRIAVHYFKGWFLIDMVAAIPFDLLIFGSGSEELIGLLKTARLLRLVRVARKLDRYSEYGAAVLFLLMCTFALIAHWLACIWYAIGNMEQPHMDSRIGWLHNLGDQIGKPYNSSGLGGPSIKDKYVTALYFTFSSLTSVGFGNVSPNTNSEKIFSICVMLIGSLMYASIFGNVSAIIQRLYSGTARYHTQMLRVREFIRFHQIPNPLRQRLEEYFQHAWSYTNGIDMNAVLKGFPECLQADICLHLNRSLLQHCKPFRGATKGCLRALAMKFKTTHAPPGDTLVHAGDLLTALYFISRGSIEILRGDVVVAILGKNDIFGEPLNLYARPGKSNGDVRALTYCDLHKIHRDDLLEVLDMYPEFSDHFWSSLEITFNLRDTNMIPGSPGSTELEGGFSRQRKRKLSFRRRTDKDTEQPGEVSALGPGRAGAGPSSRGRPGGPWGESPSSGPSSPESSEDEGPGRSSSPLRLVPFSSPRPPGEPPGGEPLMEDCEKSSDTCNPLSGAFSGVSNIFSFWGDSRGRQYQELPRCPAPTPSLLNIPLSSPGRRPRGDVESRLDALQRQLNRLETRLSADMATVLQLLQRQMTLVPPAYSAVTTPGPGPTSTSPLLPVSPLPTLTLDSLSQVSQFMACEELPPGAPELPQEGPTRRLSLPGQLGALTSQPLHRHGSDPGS", "experiment": "primary screen, population patch clamp on CHO cells stably expressing hERG", "units": {"hERG current change (%, negative = inhibition) at 1uM": "%"}, "values": [
      {"smiles": "Cc1[nH]c2ccccc2c1C(=O)CSc1nc2ccccc2c(=O)n1CCCN1CCOCC1", "hERG current change (%, negative = inhibition) at 1uM": 13.8},
      {"smiles": "COc1ccc(S(=O)(=O)N2CCCCC2C)cc1", "note": "(stereo not shown)", "hERG current change (%, negative = inhibition) at 1uM": 8.15},
      {"smiles": "Cc1ccc(OCCNCc2ccccc2)c(C)c1.O=C(O)C(=O)O", "hERG current change (%, negative = inhibition) at 1uM": 10.1},
      {"smiles": "O=C(Nc1ccc([N+](=O)[O-])cc1)C(Cc1ccccc1)N1C(=O)c2cccc3cccc(c23)C1=O", "note": "(stereo not shown)", "hERG current change (%, negative = inhibition) at 1uM": 11.6},
      {"smiles": "S=c1[nH]nc(-c2ccncc2)n1CC1CCCO1", "note": "(stereo not shown)", "hERG current change (%, negative = inhibition) at 1uM": 16.2},
      {"smiles": "O=C(O)C(=O)O.c1ccc2c(OCCCN3CCCCCC3)cccc2c1", "hERG current change (%, negative = inhibition) at 1uM": -10.2},
      {"smiles": "CC1=NNC(=O)C1C(c1ccc(Cl)cc1)C(C#N)C#N", "note": "(stereo not shown)", "hERG current change (%, negative = inhibition) at 1uM": 12.3},
      {"smiles": "Cc1ccc(C(=O)NNC(=O)c2csc(N3CCOCC3)n2)o1", "hERG current change (%, negative = inhibition) at 1uM": 18.4},
      {"smiles": "CCOC(=O)C(=NCC1CCCO1)NNc1ccccc1Cl", "note": "(stereo not shown)", "hERG current change (%, negative = inhibition) at 1uM": 11.8},
      {"smiles": "CN(c1ccc(OCC(=O)OCC(=O)NCc2ccco2)cc1)S(=O)(=O)c1ccc2ccccc2c1", "hERG current change (%, negative = inhibition) at 1uM": 13.4},
      {"smiles": "Cc1ccc(C2C(C#N)=C3N=C(N)c4ccccc4N3C3=C2C(=O)CCC3)cc1", "note": "(stereo not shown)", "hERG current change (%, negative = inhibition) at 1uM": 10.5},
      {"smiles": "CNC(=O)c1ccccc1S(=O)c1ccccc1C#N", "note": "(stereo not shown)", "hERG current change (%, negative = inhibition) at 1uM": 3.75},
      {"smiles": "CCCCc1nnc(NC(=O)CSCc2cc(=O)n3ccsc3n2)s1", "hERG current change (%, negative = inhibition) at 1uM": 18.1},
      {"smiles": "CCCc1cc(=O)oc2cc(OC(C)C(=O)NCc3ccccn3)c(Cl)cc12", "note": "(stereo not shown)", "hERG current change (%, negative = inhibition) at 1uM": -1.15},
      {"smiles": "O=C(Nc1ccccc1C(=O)N1CCCCCC1)c1ccccc1Cl", "hERG current change (%, negative = inhibition) at 1uM": 13.6},
      {"smiles": "O=C(Nc1ccccn1)c1onc2c1CCCC2", "hERG current change (%, negative = inhibition) at 1uM": -3.53},
      {"smiles": "O=C(Nc1cccc(Cl)c1)c1cc([N+](=O)[O-])ccc1N1CCN(CCO)CC1", "hERG current change (%, negative = inhibition) at 1uM": -7.8},
      {"smiles": "CC(C)c1nnc(NC(=O)c2cc3cc(Br)ccc3oc2=O)s1", "hERG current change (%, negative = inhibition) at 1uM": 6.91},
      {"smiles": "COc1ccc(NC(=O)CN(C)C(=O)c2csc3c2CCCC3)cc1", "hERG current change (%, negative = inhibition) at 1uM": 5.54},
      {"smiles": "CCN(CC)P(=O)(C(NC(=O)OC)C(F)(F)C(F)(F)C(F)(F)C(F)F)N(CC)CC", "note": "(stereo not shown)", "hERG current change (%, negative = inhibition) at 1uM": 11.2},
      {"smiles": "O=C(COC(=O)Cn1c(C(F)(F)F)nc2ccccc21)Nc1ccc2c(c1)OCCO2", "hERG current change (%, negative = inhibition) at 1uM": 11.9},
      {"smiles": "Cc1nc2sccn2c(=O)c1S(=O)(=O)Nc1ccc(N2CCOCC2)c(Cl)c1", "hERG current change (%, negative = inhibition) at 1uM": 19.9},
      {"smiles": "CCCCCCc1cc2cc(C(=O)NCc3ccccc3)c(=N)oc2cc1O", "hERG current change (%, negative = inhibition) at 1uM": 8.45},
      {"smiles": "COc1ccccc1CNC(=O)COC(=O)CC1CC2CCC1C2", "note": "(stereo not shown)", "hERG current change (%, negative = inhibition) at 1uM": 9.87},
      {"smiles": "Cc1ccccc1CN1CCN(C(=O)c2cc(-c3ccncc3)nc3ccccc23)CC1", "hERG current change (%, negative = inhibition) at 1uM": -16.6},
      {"smiles": "O=S(=O)(c1cccc(F)c1)N1CCN(c2ncnc3scc(-c4ccc(F)cc4)c23)CC1", "hERG current change (%, negative = inhibition) at 1uM": 5.52},
      {"smiles": "CCCC(c1nnnn1CC1CCCO1)N1CCN(c2cc(Cl)ccc2C)CC1.Cl", "note": "(stereo not shown)", "hERG current change (%, negative = inhibition) at 1uM": 5.82},
      {"smiles": "CSc1ncccc1C(=O)NCCc1ccccc1F", "hERG current change (%, negative = inhibition) at 1uM": 13.9},
      {"smiles": "CC(CNc1ccccc1O)C(=O)O", "note": "(stereo not shown)", "hERG current change (%, negative = inhibition) at 1uM": 12.5},
      {"smiles": "COc1ccc(CC(=O)OCC(=O)Nc2ccc(Br)cc2)cc1", "hERG current change (%, negative = inhibition) at 1uM": 4.4},
      {"smiles": "Cc1ccc(C(=O)CNc2ccc(Cl)cc2)cc1", "hERG current change (%, negative = inhibition) at 1uM": 16.4},
      {"smiles": "COc1cc(/C=C2/C(=N)N3C(=NC2=O)SN=C3S(=O)(=O)C(C)C)ccc1OS(=O)(=O)c1ccccc1", "hERG current change (%, negative = inhibition) at 1uM": 16.8},
      {"smiles": "O=C(Nn1c(=S)[nH]c2ccccc2c1=O)c1ccncc1", "hERG current change (%, negative = inhibition) at 1uM": 14.3},
      {"smiles": "COc1ccc(C(=O)CC(=O)c2ccc(F)cc2)cc1", "hERG current change (%, negative = inhibition) at 1uM": 15.9},
      {"smiles": "C=CC(=O)NC(C)(C)Cc1ccccc1", "hERG current change (%, negative = inhibition) at 1uM": 6.71},
      {"smiles": "CCCS(=O)(=O)N1CCCC(C(=O)NCCCOC(C)C)C1", "note": "(stereo not shown)", "hERG current change (%, negative = inhibition) at 1uM": 5.11},
      {"smiles": "Cc1ccc(NC(=O)C2CCN(S(=O)(=O)c3cccs3)CC2)cc1C", "hERG current change (%, negative = inhibition) at 1uM": -43.6},
      {"smiles": "FC(F)(F)c1ccccc1NC1=NCCCS1", "hERG current change (%, negative = inhibition) at 1uM": 7.14},
      {"smiles": "COc1ccc(S(=O)(=O)N(CC(C)C)CC(C)C)c2cccnc12", "hERG current change (%, negative = inhibition) at 1uM": -12.8},
      {"smiles": "CC1CN(C(=O)CCNC(=O)c2ccccc2Cl)CC(C)O1", "note": "(stereo not shown)", "hERG current change (%, negative = inhibition) at 1uM": 6.75},
      {"smiles": "CCOC(=O)c1c(CN2CCCCC2C)oc2ccc(OC)cc12.Cl", "note": "(stereo not shown)", "hERG current change (%, negative = inhibition) at 1uM": -31.1},
      {"smiles": "O=C(Nc1ccc(Cl)cc1)OCc1cn(-c2ccc(Cl)cc2)nn1", "hERG current change (%, negative = inhibition) at 1uM": 0.63},
      {"smiles": "CN1CCC(=O)N([C@H](COc2ccccc2)Cc2ccccc2)CC1", "hERG current change (%, negative = inhibition) at 1uM": -8.2},
      {"smiles": "CC(=O)Nc1ccc(NC(=O)CSc2nnc(NC(=O)C3CC(=O)N(c4ccccc4)C3)s2)cc1", "note": "(stereo not shown)", "hERG current change (%, negative = inhibition) at 1uM": 5.54},
      {"smiles": "Cc1ccc(C)c(N2CCN(C(=O)CCCCn3c(=O)[nH]c4ccccc4c3=O)CC2)c1", "hERG current change (%, negative = inhibition) at 1uM": 6.84},
      {"smiles": "CCn1nc(Cc2cccc3ccccc23)c(C#N)c1N", "hERG current change (%, negative = inhibition) at 1uM": -8.03},
      {"smiles": "CC(=O)c1cc(C#N)c(N2CCCC2)nc1C", "hERG current change (%, negative = inhibition) at 1uM": 15.4},
      {"smiles": "Nc1c(Cl)ncnc1N/N=C/c1ccncc1", "hERG current change (%, negative = inhibition) at 1uM": 16.5},
      {"smiles": "O=C(Cc1c(Cl)cccc1Cl)Nc1ccc(S(=O)(=O)Nc2ncccn2)cc1", "hERG current change (%, negative = inhibition) at 1uM": 12.8},
      {"smiles": "COc1ccc(N(Cc2cc3cc(OC)ccc3[nH]c2=O)C(=O)c2cccnc2)cc1", "hERG current change (%, negative = inhibition) at 1uM": 7.07},
      {"smiles": "COCCn1c(C)cc(C(=O)CSc2nc3ccccc3o2)c1C", "hERG current change (%, negative = inhibition) at 1uM": 4.79},
      {"smiles": "O=C(NC1CCCCC1)C1CCN(c2nnnn2-c2ccccc2)CC1", "hERG current change (%, negative = inhibition) at 1uM": 3.39},
      {"smiles": "COc1cc(OC)c(C(=O)CCCN2CCCC2)c(OC)c1.Cl", "hERG current change (%, negative = inhibition) at 1uM": 4.46},
      {"smiles": "COc1ccc(CNC(=O)c2ccc[nH]2)cc1Cl", "hERG current change (%, negative = inhibition) at 1uM": 11.9},
      {"smiles": "COc1ccccc1N1CCN(C(=O)c2ccncc2)CC1", "hERG current change (%, negative = inhibition) at 1uM": 3.51},
      {"smiles": "Cc1ccc(-c2c(C(=O)N/N=C/c3ccc(C)o3)nnn2-c2nonc2N)cc1", "hERG current change (%, negative = inhibition) at 1uM": 17.9},
      {"smiles": "Cn1cnnc1SCC(=O)Nc1sc2c(c1C(N)=O)CCC2", "hERG current change (%, negative = inhibition) at 1uM": 13.3},
      {"smiles": "Cc1ccc(S(=O)(=O)Nc2ccc(O)c3ccccc23)c(C)c1", "hERG current change (%, negative = inhibition) at 1uM": 10.5}
    ]}
  ]
}
